From paper PMC12550724, “Bidirectional regulation of KEAP1 BTB domain-based sensor activity” (Redox Biology, 2025)

Tests used:
Conditions in all cases: both partners purified
[1] = molecular target: T1, mouse KEAP1 full-length (1–624 a.a.), Y85F (mouse, UniProt Q9Z2X8 1-624, Y85F); assay: pull-down; KEAP1 (1 μM) pre-incubated 30 min at 20 °C with 1, 3 or 10 μM CDDO, then 6xHis-CUL3^NTD (1 μM), Ni-NTA magnetic agarose beads; 50 mM Tris-HCl, 300 mM NaCl, 20 mM imidazole, 10 mM GSH, pH 8.0
T1 construct: KEAP1, mouse, full length, residues 1-624, with Y85F; also called KEAP1^Y85F; source: bacteria, purified (HisPur Ni-NTA, HiTrap Q XL, TEV digestion, Superdex 200)

[2] = molecular target: T2, mouse KEAP1 full-length (1–624 a.a.), C151S (mouse, UniProt Q9Z2X8 1-624, C151S); assay: as above
T2 construct: KEAP1, mouse, full length, residues 1-624, with C151S; also called KEAP1^C151S; source: bacteria, purified (HisPur Ni-NTA, HiTrap Q XL, TEV digestion, Superdex 200)

[3] = molecular target: T3, mouse KEAP1 full-length (1–624 a.a.), WT (mouse, UniProt Q9Z2X8 1-624); assay: as above
T3 construct: KEAP1, mouse, full length, residues 1-624; In some pull-downs it was pre-incubated with CDDO compounds (see the assays); also called KEAP1^WT; full-length KEAP1; source: bacteria, purified (HisPur Ni-NTA, HiTrap Q XL, TEV digestion, Superdex 200)

[4] = molecular target: T4, mouse KEAP1 full-length (1–624 a.a.), C151S&Y85F (mouse, UniProt Q9Z2X8 1-624, Y85F | C151S); assay: pull-down; KEAP1 (1 μM) pre-incubated 30 min at 20 °C with 1, 3 or 10 μM CDDO-Im, then 6xHis-CUL3^NTD (1 μM), Ni-NTA magnetic agarose beads; 50 mM Tris-HCl, 300 mM NaCl, 20 mM imidazole, 10 mM GSH, pH 8.0
T4 construct: KEAP1, mouse, full length, residues 1-624, with C151S and Y85F; also called KEAP1^C151S&Y85F; KEAP1^Y85F&C151S; source: bacteria, purified (HisPur Ni-NTA, HiTrap Q XL, TEV digestion, Superdex 200)

binding result [1]: binds | binding result [2]: binds | binding result [3]: binds | binding result [4]: binds
B1: 6xHis-tagged N-terminus domain ([…] a.a., I342R/L346D) of mouse CUL3 (domain or fragment)
chain: not shown
notes: CUL3 (Cullin 3), mouse, N-terminal domain, […], with I342R and L346D; also called CUL3^NTD; His-CUL3^NTD; source: bacteria, purified (HisPur Ni-NTA, HiTrap Q XL, Superdex 200)
